In all, about 81,000 sequences were measured (“one-hybrid fitness for binding NBS DNA”: median about -0.1, highest 2% from about 0.36 on). This is one part of the list.
B1: Caulobacter ParB omega fusion; a variant is named by its letters at X, in order, B8GW30 (parent)
chain: MESVVVGEPGMSEGRRGLGRGLSALLGEVDAAPAQAPGEQLGGSREAPIEILQRNPDQPRRTFREEDLEDLSNSIREKGVLQPILVRPSPDTAGEYQIVAGERAWRAAQRAGLKTVPIMVRELDDLAVLEIGIIENVQRADLNVLEEALSYKVLMEKFERTQENIAQTIGKSXSHVANXMRLLXLPDEVQSYLVSGELTAXHARAIAAAADPVALAKQIIEGGLSVRETEALARKAPNLSAGKSKGGRPPRVKDTDTQALESDLSSVLGLDVSIDHRGSTGTLTITYATLEQLDDLCNRLTRGI

Variants of: B1
Assay: one-hybrid fitness for binding NBS DNA (the Noc-binding site; scaled: cognate 1, non-cognate 0); higher = stronger binding
Details: with NBS DNA site
Outline: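 On M9-minus-histidine containing 0.1 mM IPTG and 5 mM 3-AT, E. coli USO cells with a HIS3 reporter, site 19 bp from the promoter, grew 48 hours at 37°C to select Caulobacter ParB libraries randomised at four specificity codons. Plasmids from before and after were Illumina-sequenced, with three replicate libraries pooled and variants under 10 reads left out. Fitness is the log change in variant-to-wild-type read ratio, rescaled against cognate and non-cognate.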

one-hybrid fitness for binding NBS DNA, 0.27:
VRGT

one-hybrid fitness for binding NBS DNA, ≤ 0.2:
HTWV
FHKV
QMMK
CYGL
GIKR
DAIP
SKYN
RQHE
GANV
VLSR
NYCK
FVNN
AEVY
TMIG
RMGC
EKIS
IIGS
TVNK
RGGR
GATS
MCYV
EDVR
RVQF
LHPM
LVWR
STWS
PQPA
DVCS
LCVG
LGNN
EAIT
CNRL
CTLL
EWHT
YLQL
HHWI
SVHR
NSDM
WPRT
TWRS
MYPR
EQQR
MLNL
WSTM
ILFG
GSSA
SGTH
GHWR
LGRY
CEMF
TLGH
PLIR
NDPQ
RREL
HCSV
QTMM
KIES
KPWQ
CRHV
YMTF
LDYW
WIRM
WVPM
DDVG
MARW
MTRW
RTSK
EGQV
DIRY
FKTR
NSWF
MFKC
VFLR
DMVA
FGQY
NCVK
HQSC
DAGL
AVQC
PLDT
LWQR
PPVA
PDNC
KHLD
YFWL
IIGK
WPSG
THTW
GWIC
WRPS
YLHS
GASF
WEQG

one-hybrid fitness for binding NBS DNA, 0.203:
IFQI

one-hybrid fitness for binding NBS DNA, 0.221:
QHVS

one-hybrid fitness for binding NBS DNA, 0.445:
QRGK
